According to paper PMC12040169 (PLOS Biology, 2025):
Some of the results follow.

tested on: T1, C. trachomatis L2/434/Bu expressing GFP (CTL2-GFP); set-up: species or system HeLa; C. trachomatis total inclusion area by high-content imaging, normalised to DMSO; details: total inclusion area; 28.5 h, 10 µM; inhibitor
T1 construct: L2/434/Bu GFP intracellular growth in HeLa cells
Outline: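 Host cell viability was gauged from Hoechst-stained nuclei counts, while chlamydial growth was taken from total inclusion area and inclusion number per well. Cells were fixed and imaged by high-content microscopy once bulk GFP and resorufin fluorescence had been measured.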

SMILES | % of control remaining
Oc1ccccc1-c1cc(-c2ccccc2)c2c(ccc3ncccc32)n1 [CBK261276] | 96.7571
Cc1nc(COc2ccc(C(=O)Nc3ccc(C(=O)O)cc3C)cc2)cs1 [CBK295360] | 101.351
CCn1cc(-c2cncn2CCCOc2cccc(C)c2)cn1 [CBK281760] | 136.939
CN(CCN1CCCCC1)C(=O)Cn1cnc2ccccc21 [CBK281515] | 111.965
O=C(O)C1(NS(=O)(=O)c2ccc(F)c(Cl)c2)CCCCC1 [CBK267276] | 103.875
CNC(=O)c1cc(-c2cccc(Cl)c2)oc1CC(=O)c1ccc(CN2CCCC2)cc1 [CBK047558] | 98.6333
O=S(=O)(NCCCN1CCOCC1)c1cc(C(F)(F)F)cc(C(F)(F)F)c1 [CBK005796] | 123.238
O=C(NC(NCc1ccc2c(c1)OCO2)(C(F)(F)F)C(F)(F)F)c1cccnc1 [CBK074397] | 91.0608
O=C(O)c1ccc(N2C(=O)CC(N3CCN(CCO)CC3)C2=O)cc1 (stereo not shown) [CBK271638] | 92.8797
N#CCCn1cc(C(=O)N2CCCCC2)c(-c2ccc(F)cc2)n1 [CBK306191] | 32.1259
O=C(c1ccsc1NS(=O)(=O)/C=C/c1ccccc1)N1CCOCC1 [CBK042285] | 86.0751
Cc1cc(C(C)(C)C)cc(C)c1COC(=O)c1ccncc1 [CBK296995] | 53.4003
O=[N+]([O-])c1cccc(S(=O)(=O)NCCOc2cccc3cccnc23)c1 [CBK268489] | 113.635
Cc1nccn1CCC(=O)Nc1ccccc1Oc1ccc(F)cc1 [CBK281473] | 104.693
NC(=S)Nc1nc(-c2ccc(Br)cc2)cs1 [CBK023259] | 64.0072
Cc1cc(NC(=O)Cc2cn3ccsc3n2)ccc1N1CCCC1 [CBK306080] | 86.8398
O=C(CN1CCN(Cc2ccc3c(c2)OCO3)CC1)Nc1ccc(Oc2ccccc2)cc1 [CBK265864] | 68.6461
O=C1N[C@@H](Cc2ccc(F)cc2)C(=O)N2CCN(C(=O)N3CCOCC3)C[C@H]12 [CBK289603] | 128.014
CC(C)(C)OC(=O)N1CCN(CCOc2ccc(NC(=O)OCc3ccccc3)cc2F)CC1 [CBK016854] | 75.4737
Nc1ncc(-c2cccc(C(F)(F)F)c2)c2cccnc12 [CBK067590] | 94.3275
Cc1ccc(S(=O)(=O)CC(=O)N2CCN(C(=O)c3ccco3)CC2)cc1 [CBK144469] | 85.5757
CCN(CC(=O)NCc1ccccn1)S(=O)(=O)c1ccccc1 [CBK269546] | 88.9119
Cc1cc2c(N3CCCC(NS(C)(=O)=O)C3)nccc2o1 (stereo not shown) [CBK306464] | 85.4088
Cc1nn2c(N)ncnc2c1-c1ccc(Cl)cc1 [CBK287880] | 58.8797
COc1cccc(CN2CCN(C(=O)Cc3cccs3)[C@@H](C)C2)c1 [CBK285487] | 99.8852
Cc1noc(C)c1C(=O)N1CCn2cc(C(F)(F)F)nc2C1 [CBK282431] | 100.052
O=C(CSc1nc2sc3c(c2c(=O)n1-c1ccccc1)CCCC3)NCCc1ccccc1 [CBK263280] | 95.6944

SMILES | % of control remaining
Cn1c(=O)n(CCN2CCOCC2)c(=O)c2c1nc1n2CCN1c1ccc(Oc2ccccc2)cc1 [CBK269202] | 101.003
O=c1[nH]c2ncc(-c3ccsc3)nc2n1C1CCCCC1 [CBK064574] | 94.4985
O=C(NCc1ccco1)c1cccc(Oc2ccccc2)c1 [CBK270333] | 103.491
Cc1ccc2c(c1)cc(C(=O)N(C)CC1(C)COC1)n2C [CBK281723] | 84.4162
FC(F)(F)c1[nH]c2ncccc2c1CN1CCN2CCCCC2C1 (stereo not shown) [CBK285355] | 86.4341
O=C(O)CCN1C(=O)c2ccc(NC(=O)CCc3ccccc3)cc2C1=O [CBK266422] | 124.07
CC(=O)Nc1ccc(NS(=O)(=O)c2ccc(C)c(C(=O)O)c2)cc1 [CBK295162] | 111.327
O=C(COc1cccc(Cl)c1)NCCc1ccc(S(=O)(=O)NC(=O)NC2CCCCC2)cc1 [CBK011798] | 104.894
CC(C)(C)c1ccc(C(O)CN2CCC(O)(c3ccc4c(c3)OCO4)CC2)cc1 (stereo not shown) [CBK286336] | 83.627
Cc1cnc2[nH]c(C3CC3)c(CN3CC(C)OC(C)C3)c2c1 (stereo not shown) [CBK284741] | 94.2469
Cn1ccnc1C1(O)CC2CCC(C1)N2C(=O)c1ccccc1Cl (stereo not shown) [CBK284090] | 113.591
Cc1ccc2[nH]c3c(c2c1)CCOC31CCN(CCOc2cccc3c2CCCC3=O)CC1 [CBK040230] | 62.4158
CC(C)Nc1cc(Cl)ncn1 [CBK081511] | 84.4015
COc1ccc(-c2cnn(-c3ccc(OC)cc3)n2)cc1 [CBK112745] | 94.9723
Cc1c(-c2cncn2C(C)CN2CCOCC2)[nH]c2ccccc12 (stereo not shown) [CBK281795] | 78.4225
COc1ccc(-c2nc(-c3cc4ccccc4o3)cnc2N)cc1OC [CBK064099] | 38.0358
Cc1ccc(-c2oncc2C(=O)NCc2cccs2)cc1 [CBK153679] | 112.109
CN(C)CCNC(=O)C1CCN(c2nc3c(-c4ccccc4F)csc3c(=O)[nH]2)CC1 [CBK215437] | 91.125
Cc1ccc(CN(CCCn2ccnc2)Cc2cncn2C)s1 [CBK283106] | 95.5962
O=C(NC(c1ccccc1)c1ccccc1)N1CCN(CCc2ccccc2)CC1 [CBK158905] | 72.5439
O=C1CC2(CCN(C(=O)c3ccoc3)CC2)Oc2ccc3ccccc3c21 [CBK156444] | 77.4833
C[N+](C)(C)c1ccc(C(=O)O)cc1 [CBK260929B] | 87.2739
C[C@@H]1CN(C(=O)c2cc3c(C(=O)OC(C)(C)C)ncn3c3ccc(Cl)cc23)C[C@H](C)N1 [CBK016744] | 37.2797
COc1ccc(OC)c(-c2cc(C(=O)O)c(C)s2)c1 [CBK049922] | 39.9493
CCOC(=O)C1CCCCN1S(=O)(=O)c1ccc(Br)s1 (stereo not shown) [CBK096110] | 74.4725
O=C([C@H]1O[C@H](CCN2CCN(c3ccccc3)CC2)CC[C@@H]1O)N1CCOCC1 [CBK288724] | 91.3278
CC(C)Nc1nccnc1Sc1nc[nH]n1 [CBK115205] | 88.0343

SMILES | % of control remaining
O=C(Cc1ccccc1C(=O)O)Nc1ccc(-n2cncn2)c(Cl)c1 [CBK286756] | 41.6205
O=C(CCN1C(=O)c2cc(Cl)c(Cl)cc2C1=O)Nc1cccc(-c2cnc3ccccc3n2)c1 [CBK268575] | 90.877
COc1ccc(NC(=O)CCn2ccc3ccncc32)c(C)c1 [CBK282860] | 74.0742
CN1CCC(Oc2nc3cc(Cl)c(Cl)cc3nc2N2CCCC2)CC1 [CBK115290] | 91.5012
CCOc1cc(-c2noc(CCC(=O)N3CCN(C)CC3)n2)ccc1OC [CBK269513] | 81.7733
Nc1c(C(=O)NCc2ccccc2)c2nc3ccccc3nc2n1CCO [CBK267201] | 87.9886
CC(=O)c1ccc(-c2nccnc2NCc2ccc(C(F)(F)F)cc2)s1 [CBK037983] | 67.9489
C[C@H](c1ccccc1)n1c(=O)[nH]c2ncc(-c3cccc(/C=C/C(=O)O)c3)nc21 [CBK064983] | 66.8457
CC(=O)Nc1ccc(S(=O)(=O)Oc2ccc(C3C4=C(CC(C)(C)CC4=O)N=C4c5ccccc5C(=O)C43)cc2)cc1 (stereo not shown) [CBK262964] | 68.1006
CCOC(=O)c1c(-c2ccc(Cl)cc2)csc1NC(=O)CCCC(=O)O [CBK296929] | 92.5199
Cn1c2ccccc2c2nnc(SCCCC(=O)c3ccc(F)cc3)nc21 [CBK268830] | 99.8086
O=C(CN1CCN(c2ccc([N+](=O)[O-])cn2)CC1)Nc1ccc2c(c1)OCO2 [CBK074679] | 93.947
O=C1C(C2CCN(Cc3ccc4ncccc4c3)CC2)CC=CCN1Cc1ccccc1 (stereo not shown) [CBK286269] | 81.5484
CN(CCc1cccnc1)CC(=O)Nc1cccc(Cl)c1 [CBK304108] | 110.521
NC(Cc1ccccc1)CN(CC1(c2ccc(Cl)cc2)CC1)C(=O)Nc1ccc2c(c1)OCO2 (stereo not shown) [CBK002342C] | 25.7017
CCCS(=O)(=O)c1ccc(NC(=O)Nc2ccc(Cl)cc2Cl)cc1 [CBK008564] | 50.8573
CCCC(C(=O)NC(C)(C)CN1CCCCC1)n1nc(C)cc1C (stereo not shown) [CBK282061] | 142.021
O=C(c1ccccn1)N(CCc1ccccc1)c1nc2ccccc2s1 [CBK295151] | 100.53
Cc1onc(-c2ccccc2)c1CNC(=O)/C=C/c1ccc2c(c1)OCO2 [CBK144085] | 101.997
CCCC(=O)Nc1ccc2c(c1)nc1n2CCN(Cc2ccccc2)C1 [CBK267129] | 101.611
CC(C)(C)OC(=O)NC(C)(C)C(=O)N1CC(C(=O)O)C(c2cc3ccccc3o2)C1 (stereo not shown) [CBK003236] | 123.937
CCNC(=S)N(CCc1ccccc1)C1CC(=O)N(c2ccc(F)cc2)C1=O (stereo not shown) [CBK262941] | 81.8654
Cc1cc(C)n(CCC(=O)NCC(c2ccccn2)N2CCOCC2)n1 (stereo not shown) [CBK307396] | 54.614
CCOC(=O)Cn1c(C)nc(C)cc1=O [CBK012419] | 81.5005
Cn1c(=O)n(C)c2cc(S(=O)(=O)NCCC(=O)O)ccc21 [CBK267565] | 96.2017
